Hit rate of the full screen: of about 420,000 compounds, about 64,000 (15%) were called active. Inconclusive results, whose numbers are uncertain, are shown with a selection of clear calls. The call rests on the fitted dose curve; in most records, active means well fitted inhibition curve with a large enough effect; inconclusive means small, poorly fitted or top-dose-only effect; inactive means flat fitted curve, though single readings scatter. No potency is given beside an inconclusive call; the fits are too rough.
Experiment: qHTS for Inhibitors of human tyrosyl-DNA phosphodiesterase 1 (TDP1): qHTS in cells in absence of CPT; further: nearly all actives have a fitted effect of over 55% in size
Conditions: DT40 Tdp1-/- hTDP1 cells, no CPT, ATP luminescence, 48 h; series mostly up to 46.2 µM
Method in brief: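 Readout: luminescence from CellTiter-Glo after 30 min in the dark at RT. Cells: DT40 Tdp1-/- with stable hTDP1, 400/well. Exposure: compounds alone, ≥48 hr, 37 °C.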
Potency means the concentration at half of the fitted maximal effect; tags describe the fitted curve by direction and shape.

Compound	Potency
O=C(CNC(=O)c1ccc(F)cc1)c1ccccc1	inactive
CCOC(=O)c1cnn(-c2nc(-c3cccc(F)c3)cs2)c1C(F)(F)F	inconclusive [inhibitor, single point]
COc1ccc(Cc2nc3ccc(C(=O)NC(C)c4cnn(C)c4)cc3o2)cc1 (stereo not given)	inactive
O=C(NCCC1=CCCCC1)C1CCN(C(=O)c2ccc(Cl)cc2)CC1	inconclusive [inhibitor, single point]
COC(=O)c1cc(Nc2nc3ccccc3nc2NS(=O)(=O)c2ccc(C)cc2)ccc1Cl	active: 6.51 µM
COc1ccc2c(c1)CCc1c(C(=O)Nc3cc(OC)c(Cl)cc3OC)noc1-2	inconclusive [inhibitor, partial curve]
CN(CC(=O)N1CCCC1)S(=O)(=O)c1ccc2ccccc2c1	active: 20.6 µM
Oc1ccccc1N1CCN(C(c2ccccc2)c2ccccc2)CC1	inconclusive [inhibitor, single point]
CC(=O)Nc1ccc(S(=O)(=O)N[C@@H](C)C(=O)N(C)Cc2cccs2)cc1	inactive
CCCN1CCN(c2nc(-c3cccs3)nc3ccccc23)CC1	inconclusive [inhibitor, single point]
CC(Oc1ccc(Cl)cc1Cl)C(=O)N(C)c1ccccc1 (stereo not given)	inconclusive [inhibitor, single point]
COc1ccc(C(=O)N2CCC3(CCN(Cc4nccs4)CC3)CC2)cc1	inactive
Nc1ccc(S(=O)(=O)NN=Cc2ccccc2[N+](=O)[O-])cc1	inconclusive [inhibitor, partial curve, poor fit]
Cc1cc(C)nc(NS(=O)(=O)c2ccc(NC(=O)c3cc(-c4ccccc4)nc4ccccc34)cc2)n1	inconclusive [inhibitor, single point]
COc1ccc(OCC(O)CNC(=O)/C=C/c2cccc([N+](=O)[O-])c2)cc1 (stereo not given)	inconclusive [inhibitor, single point]
Cc1cc(C)nc(N/N=C2/CCCC/C2=C\c2ccccc2)n1	active: 1.16 µM
Cn1cccc1CNC(=O)Nc1ccc(Cl)cc1	inconclusive [inhibitor, partial curve, poor fit]
Cc1c(Cl)cccc1NC(=O)CNc1cccc(S(=O)(=O)N(C)C)c1	inconclusive [inhibitor, single point]
Cc1ccc(C)c(Cn2nnc3c(=O)[nH]c(C4CCN(S(=O)(=O)c5ccc(S(=O)(=O)NC6CC6)cc5)CC4)nc32)c1	active: 18.4 µM
Cc1noc(C)c1-c1ccc2ncnc(NC3CCNCC3)c2c1	inconclusive [inhibitor, single point]
O=C(COc1ncnc2ccccc12)Nc1cc([N+](=O)[O-])ccc1Cl	inactive
COc1ccc(C2/C(=C(/O)c3ccc(C)cc3)C(=O)C(=O)N2c2ccccn2)cc1OC (stereo not given)	inactive
NS(=O)(=O)c1ccc(N=Nc2cc3ccccc3c(C(=O)O)c2O)cc1	active: 1.12 µM

Compound	Potency
CCC(=O)NC(Cc1ccccc1)c1nc2ccccc2[nH]1 (stereo not given)	inactive
Cc1ccc(S(=O)(=O)NNC(=O)c2ccc(C(=O)N(c3ccccc3)c3ccccc3)cc2)cc1	active: 11.2 µM
Cc1noc(C)c1S(=O)(=O)N(C)C[C@H]1Oc2c(NC(=O)Nc3ccc4c(c3)OCO4)cccc2C(=O)N([C@H](C)CO)C[C@@H]1C	inactive
CN1CCN(c2ccc(Cl)cc2NC(=O)/C=C/c2ccc(F)cc2)CC1	active: 16.4 µM
Cc1cccc(/C=N\NC(=O)c2sccc2-n2cccc2)c1	inactive
Nc1c(C(=O)Nc2ccc(F)cc2)sc2nc(-c3cccs3)cc(C(F)(F)F)c12	inconclusive [inhibitor, single point]
COC(=O)c1ccc([C@@H]2Nc3c(OC)ccc(C)c3[C@@H]3C=CC[C@@H]32)cc1	inconclusive [inhibitor, single point]
CC1(C)CC(=O)C(C=Nc2ccc(NC3=C(C#N)C(=O)CC(C)(C)C3)cc2)=C(O)C1	inactive
O=C(CSc1nc2nn(-c3ccccc3)c(=O)c-2c2n1CCCCC2)Nc1ccc(OC(F)F)cc1	inconclusive [inhibitor, single point]
COc1ccc(C)cc1N(CC(=O)NC1CCCC1)C(=O)CCC(=O)Nc1cc(C)on1	inactive
N#CCO/N=C(\c1ccccc1)c1ccncc1	inconclusive [inhibitor, partial curve]
COc1ccc(C(=O)Nc2cccc(C(=O)OCc3cc(=O)n4nc(C5CC5)sc4n3)c2)cc1	inconclusive [inhibitor, partial curve]
Cc1ncoc1C(=O)N1CCCC(C(=O)c2ccc(C(F)(F)F)cc2)C1 (stereo not given)	inconclusive [inhibitor, single point]
CC1CCc2c(nc3ncnn3c2N2CC(C)OC(C)C2)C1 (stereo not given)	inconclusive [inhibitor, partial curve]
CCC1CCC2(CC1)NC(=O)N(CC(=O)N1CCc3ccccc31)C2=O (stereo not given)	inconclusive [inhibitor, single point]
Cc1cc(C)cc(NC(=O)Nc2ccccc2N2CCCCC2)c1	active: 16.4 µM
Cc1ccc(S(=O)(=O)Nc2ccc(N(C)S(=O)(=O)c3ccc(C)cc3)cc2)cc1	inconclusive [inhibitor, single point]
CCOc1ccc(C(=O)C(C)OC(=O)Cn2c(C)csc2=O)cc1 (stereo not given)	inconclusive [inhibitor, partial curve, poor fit]
CCOc1ccc(N=Cc2ccc([N+](=O)[O-])cc2)c(O)c1	active: 11.6 µM
CCn1c2ccccc2c2cc(CN3CCN(Cc4ccc(Br)cc4)CC3)ccc21	active: 14.6 µM
O=C(NCc1csc(-c2ccccc2)n1)c1ccco1	inactive
Cc1ccc2cc(C)c(N3CCN(c4ccccn4)CC3)nc2c1	inconclusive [inhibitor, partial curve, poor fit]

— PubChem BioAssay AID686978 (National Center for Advancing Translational Sciences (NCATS), 2013)
